The RNAGym collection of RNA variant scans (doi:10.7554/elife.90254)
The source gives no read counts; variants with many changes may rest on few reads.

B1: LINE1-full (parent)
chain: UACGUAGGUGGUUUUCCCCUGAUAGUGCUAAGGGGGCCUGGAAGUUUGGACUGGGCAGAGCUCAACACAGCGUGGCAAAGUGGCUGUGGCUAGACUGCCUCUCUGGAUUCCUCGUCACUCAGCAGGGCAUCUCUGAGAGAAAUGCC

Variants of: B1
Experiment: self-cleavage, relative activity (ratio to wild type); higher = more cleavage; in vitro, sequencing; the parent is a self-cleaving ribozyme

| Variant | self-cleavage |
| --- | --- |
| U29C A30G A31U A117C A136U | 0 |
| A42G G89A U108C | 0.06 |
| A65G A78G U115G U132A | 0 |
| U26C A79G G144A | 1.02 |
| A50G U108C G144A | 1.65 |
| U15C U20C A57G A65G | 0 |
| U13C U119C A140U | 1.87 |
| A6G U13A U108C | 1.19 |
| U13C U15C U26A | 1.5 |
| U12C A94G A107G | 0.68 |
| A24G A65G U73A | 0.03 |
| U46C G60U A65G A140G | 0 |
| A50G C61U A78G U108C A121G | 0 |
| A22G A94U A140G | 0.41 |
| C38U U108C A138G | 2.26 |
| U62A U102C A141G | 0.1 |
| A24G G74U U85A A138G | 0.1 |
| A59U U81G U100C | 0.71 |
| U39C U45C A77U | 1.04 |
| A69G A77G C84U U109C | 0.05 |
| A69G A129G A138C | 0.51 |

| Variant | self-cleavage |
| --- | --- |
| U13C A43C U45C | 1.53 |
| U5A U23C U45A U52A | 1.84 |
| A6G U15C A43G | 0.64 |
| U14C A24U U81A U85C G114C | 0.27 |
| A24G G54A U96A | 0 |
| U5C A50U U96C G114A | 0.25 |
| U13C U14C A59G A107G | 0.21 |
| A59G U62A A77U C111U | 0.04 |
| A6C U20A U29C G114A | 1.08 |
| G34A U47C U52A | 1.28 |
| U15C A59G C71U U108C A141C | 0.14 |
| G40A U132C A136G | 1.11 |
| U47C A79G U115C | 0 |
| G21U G74U G114A | 1.68 |
| U5C C17G U62C U119C | 0.8 |
| G27U A50G U108C | 1.56 |
| G32A U46C A64G U109A | 0.18 |
| U12C A43G C68A | 0.12 |
| U13A U47A U52C U108C G122A | 0.75 |
| U12C U13C U85A U132C A142G | 0.48 |
| C3U U9C G21A | 0.48 |

| Variant | self-cleavage |
| --- | --- |
| U81C U100G U134A | 0.84 |
| U9A C19U A121U A141G | 0.66 |
| U39C A42U U62A | 0.03 |
| A31U A117U U119C | 1.57 |
| U12C A43G G53A U132A A136G | 0.84 |
| U26C G70A U119A A141G | 0.18 |
| U20C U109C U112C U134C | 2.63 |
| A2G A31U U62C C146U | 0.63 |
| U46C G60A A107U A141G | 0 |
| U1A U15C U62A | 0.12 |
| G7A A43G G60U C111U | 0.03 |
| U12A A64G A136U | 0.28 |
| U15C G36U U87C U115G | 0.07 |
| U12C A42G A121C A124U | 2.4 |
| A79U U96C G106C A141G | 0.1 |
| U23A A64G U115C | 0.45 |
| G10A U23C A77G | 2.03 |
| A2G U12A U81C A136U | 0 |
| U29C A67U A129U | 0.19 |
| U62G A77U G93A | 0.04 |
| G7A C17U U132A | 0.54 |

| Variant | self-cleavage |
| --- | --- |
| U20A A77G U91C G126A | 1.34 |
| U45A U85C A142G | 0.19 |
| A69U U73C A136G | 0.05 |
| A79U U132C U134C | 1.99 |
| U12A U20C A31G C90U U96G | 0 |
| U29C U46A A64G A138G | 0.22 |
| A6U A79G G86A | 0.25 |
| A2G U15A A136U | 0.4 |
| G8A G53C U104A | 1.5 |
| A2G U46G A107G | 1.06 |
| U23A A69U U96C | 0.03 |
| U13C U52A U115C | 1.46 |
| A65G U73C A77G | 0 |
| U13C A79U A142G | 2.39 |
| U13A U73C A79G U104A | 1.31 |
| U29C A31G U96A A141G | 0.14 |
| A64C U109C C146U | 0.27 |
| U12G U102C U115A | 1 |
| A64G G83A U100C U108C C116U A136G | 0.3 |
| A79G U87A A124U | 0.15 |
| G34U U46C A78G U102C A142G | 1.97 |
